PubChem BioAssay AID1508624 (National Center for Advancing Translational Sciences (NCATS), 2021)
Out of some 48,000 compounds screened, about 120 (0.25%) were called active. Inconclusive results (about 4%) are left out. Calls come from the whole dose curve; as a rule, active = well fitted activation curve with a large enough effect; inconclusive = small, poorly fitted or top-dose-only effect, or another doubt; inactive = no such curve, though single readings can be large or run the other way. The list shows a part of the results.

Experiment: Primary qHTS for Identification of Small Molecule Activators of Huntingtin-Antisense Promoter Activity; note: nearly all actives have a fitted effect of over 55% in size
Conditions: HEK293 HTT-AS promoter firefly luciferase reporter (activity 0% = vehicle and -100% = no light), 24 h; series mostly up to 57.5 µM; activity change, positive = activation: at the top concentration
Outline: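 HEK293 Fluc reporter, 2,500 cells/well, 24 h pre-culture; cpds up to 57.5 uM final, 24 h 37 degrees C; Dual-Glo, 10 min RT; normalized vehicle = 0%, zero RLU = -100%.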

Activity change, positive = activation, inactive:
C=CCc1c(C)nc2nc(SCC(=O)Nc3ccc(C)c(C)c3)nn2c1C -26%, Cc1cccc(CSc2nc(-c3cccs3)ccc2C#N)c1 -31.4%, O=C(COc1ccccc1F)Nc1nnc(SCc2cc(=O)c3ccccc3[nH]2)s1 -23.1%, OC[C@@H](O)[C@@H](O)[C@H](O)[C@@H](O)CO -4.49%, COc1ccc(NC(=O)C2CCCN(S(=O)(=O)c3ccc4c(c3)oc(=O)n4C)C2)c(OC)c1 (centres undefined) -31.9%, COc1cccc(N2CCN(C(=O)c3cccn3-c3nnc(N4CCCC4)s3)CC2)c1 -5.74%, COCCCNC(=O)c1ccc(-n2c(-c3ccccc3)cc3c2CCC(C)C3)cc1 (centres undefined) -42.4%, CCNC(=O)c1ccc(CSc2nc3ccncc3n2Cc2ccc(F)cc2)cc1 -18.6%, CCn1c(C(=O)NCc2cc(Br)ccc2OC)cc2oc3ccccc3c21 1.58%, CCN(C(=O)Cn1cnc2onc(-c3ccc(F)cc3)c2c1=O)c1cc(C)ccc1C -30%, CO[C@]12C[C@@H](COC(=O)c3cncc(Br)c3)CN(C)[C@@H]1Cc1cn(C)c3cccc2c13 -0.202%, CCCCC(=O)O[C@]1(C(=O)CO)[C@@H](C)C[C@H]2[C@@H]3CCC4=CC(=O)C=C[C@]4(C)[C@@]3(F)[C@@H](O)C[C@@]21C -7.8%, Cc1ccc(NC(=O)N2CCN(c3cc(-c4noc(C)n4)ccc3C)CC2)c(C)c1 -13.6%, Cc1cccc(CCNC(=O)CN(c2ccc(C(C)C)cc2)S(=O)(=O)c2c(C)nn(C)c2C)c1 -27.5%, COc1cccc(Cc2nc3ccccc3nc2SCC(=O)NCc2ccc(C)cc2)c1 -8.21%, CC(=O)c1ccc(NC(=O)C2CCC(CNS(=O)(=O)c3cccs3)CC2)cc1 (centres undefined) -0.422%, Cc1cccc(NC(=O)Cn2c(=O)ccc3cc(S(=O)(=O)N4CCCC4)ccc32)c1C -13.4%, COc1ccc(CCNC(=O)c2ccc3c(c2)nc2n3CCC(C)C2)cc1OC (centres undefined) -21.1%, CCOC(=O)c1noc2nc(C)n(Cc3cccc(C#N)c3)c(=O)c12 1.55%, O=C(NCc1ccc(F)cc1)c1ccc2c(c1)nnn2C1CCCC1 -5.84%, COc1ccc(N2C(=O)CS(=O)(=O)C23C(=O)N(Cc2ccc(C)cc2)c2ccccc23)cc1Cl (centres undefined) -20.9%, CCOc1ccc(NC(=O)N2CCN(Cc3cc(=O)n4nc(-c5ccc(OC)cc5)sc4n3)CC2)cc1 -8.99%, Cc1c(NC(=O)c2cc(-c3ccc(Cl)cc3)on2)c(=O)n(-c2ccccc2)n1C -31.5%, CCOC(=O)c1[nH]c(C)c(CCC(=O)NCc2ccc(OC)cc2)c1C -12.1%, COc1ccc(-c2cc(C)no2)cc1S(=O)(=O)N1CCN(c2ccccc2F)CC1 -52.6%, CC(=O)OCC(=O)[C@@]1(O)CC[C@H]2[C@@H]3CCC4=CC(=O)CC[C@]4(C)[C@H]3C(=O)C[C@@]21C -10%, CC(=O)N1c2ccccc2CC1C(=O)NCc1cccc(Cl)c1 (centres undefined) 14.7%, CC1CCN(c2nc3c(S(=O)(=O)c4ccc(Cl)cc4)nnn3c3ccsc23)CC1 -2.36%, COc1ccc(CCNc2nc3c(-c4cccc(F)c4)nnn3c3ccccc23)cc1OC 3.72%, Cc1cccc(NC(=O)CSc2nc(-c3ccccc3Cl)nc3c2Cc2c(CO)cnc(C)c2O3)c1C -15.3%, CCOc1cccc(C2CC(=O)Nc3cc4c(cc32)OCCO4)c1 (centres undefined) -42.3%, COCCNC(=O)C1CCN(c2nc3ccccc3nc2C(F)(F)F)CC1 2.7%, CCc1ccccc1NC(=O)c1ccc(CN2C(=O)CCn3nc(C)cc32)cc1 -17.9%, Cc1ccccc1NC(=O)CSc1cn(CC(=O)N(C(C)C)C(C)C)c2ccccc12 -20.6%, COc1cc2c(cc1OC)n(Cc1ccc([N+](=O)[O-])cc1)c(=O)n1nc(-c3ccccc3)nc21 3.45%, COc1cc(C(=O)N2CCOCC2)cc(OC)c1OC -4%, COc1cc2c(cc1OC)C(COc1ccc3c(C)cc(=O)oc3c1)N(C(=O)c1ccccc1F)CC2 (centres undefined) 5.88%, COc1ccc(CNc2nc3ccccc3c3nc(-c4ccccc4)nn23)cc1 -13.5%, Cc1ccc(OCC(=O)Nc2nc(-c3ccc(Br)cc3)ns2)cc1C -17.7%, Cc1ccccc1OCC(=O)Nc1ccc2nc(SCc3ccccc3)sc2c1 13.6%, CC(=O)OCC(=O)[C@@]1(O)CC[C@H]2[C@@H]3CCC4=CC(=O)C=C[C@]4(C)[C@@]3(F)[C@@H](O)C[C@@]21C -8.72%, COc1ccc(OCC(=O)NC2CC(=O)N(c3ccc4c(c3)OCCO4)C2)cc1 (centres undefined) 19.1%, COc1ccc(-c2ccc(NS(=O)(=O)c3cccc(C)c3)cc2)nn1 -17%, CCc1ccc(NS(=O)(=O)c2c(C)nc3sc(CC)nn3c2=O)cc1 -37.2%, COc1ccc(CCNC(=O)C2CCN(c3nc4ccccc4nc3C(F)(F)F)CC2)c(OC)c1 -0.406%, Cc1ccc(C)c(CN2C(=O)C3(c4ccccc42)N(c2ccc(Cl)cc2)C(=O)CS3(=O)=O)c1 (centres undefined) -11.9%, Cc1ccc(S(=O)(=O)N2CCc3cc(C(=O)Nc4c(F)cccc4F)ccc32)cc1 -4.05%, CCC(C(=O)N1CCN(c2cc(C)ccc2C)CC1)n1nc(C)n2c(cc3occc32)c1=O (centres undefined) -35.1%, CCOC(=O)Cn1c(=O)n(C2CCCCC2)c2nc(-c3ccc(C(C)C)cc3)nc(C(N)=O)c21 -17.7%, Cc1ccc2c(CN3CCN(C(=O)c4ccc(Br)cc4)CC3)cc(=O)oc2c1 -22.7%, COc1ccccc1NC(=O)CSC1=Nc2ccccc2C2=NC(CC(=O)NCc3ccccc3)C(=O)N12 (centres undefined) 4.43%, CCOc1ccc(NC(=O)C2CCCN(c3nnc(C)c4c(C)n(-c5ccccc5)nc34)C2)cc1 (centres undefined) -20.3%, Cn1c(=O)c2c(nc(N3CCOCC3)n2Cc2ccc(Br)cc2)n(C)c1=O -16%, Cc1ccc(CN2CCN(C3CCNCC3)C(=O)C2=O)cc1 -2.26%, COc1ccc(NC(=O)C2CCN(c3ccc(Sc4ccc(C)cc4)nn3)CC2)c(OC)c1 -14.3%, O=C(CSc1ccc(-c2ccccn2)nn1)Nc1ccc(F)cc1F -12.8%, Cc1ccc(CNC(=O)CCNS(=O)(=O)c2cccc3nsnc23)cc1 -6.95%, CCCN(CCC)CC(O)Cn1cc(/C=C/C(=O)c2ccc(Br)cc2)c2ccccc21 (centres undefined) -8.58%, CCn1cc(C(=O)N(C)c2ccc(C(C)C)cc2)c2cc(OC)c(OC)cc2c1=O -30.4%
